Hit rate of the full screen: of about 330,000 compounds, about 560 (0.17%) were called active. Inconclusive results (about 1%) are left out. Calls come from the whole dose curve; as a rule, active = well fitted inhibition curve with a large enough effect; inconclusive = small, poorly fitted or top-dose-only effect, or effect the other way; inactive = flat fitted curve, though single readings scatter. The entries are a selection whose mix differs from that of the whole data set.
The compounds below were run against ATP-dependent 6-phosphofructokinase (Trypanosoma brucei brucei) (UniProt O15648) (assay: qHTS Assay to Find Inhibitors of T. brucei phosphofructokinase). Details: T. brucei PFK, ADP-Glo luminescence; series mostly up to 57.5 µM; activity, negative = inhibition: at the top concentration.
UniProt O15648, sequence (O15648 whole entry, looked up): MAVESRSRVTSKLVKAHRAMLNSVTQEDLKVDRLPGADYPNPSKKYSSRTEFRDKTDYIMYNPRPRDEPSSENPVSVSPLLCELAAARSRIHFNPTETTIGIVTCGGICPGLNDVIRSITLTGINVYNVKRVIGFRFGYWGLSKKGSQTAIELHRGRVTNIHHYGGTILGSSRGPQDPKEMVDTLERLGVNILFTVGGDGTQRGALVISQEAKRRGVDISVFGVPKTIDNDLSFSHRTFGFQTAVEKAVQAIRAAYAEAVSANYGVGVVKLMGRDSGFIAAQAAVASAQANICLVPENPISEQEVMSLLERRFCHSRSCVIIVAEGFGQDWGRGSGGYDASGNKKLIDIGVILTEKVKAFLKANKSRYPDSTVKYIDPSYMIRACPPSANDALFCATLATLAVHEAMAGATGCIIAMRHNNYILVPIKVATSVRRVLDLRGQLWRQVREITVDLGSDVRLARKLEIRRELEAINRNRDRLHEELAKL
Description: NIH Molecular Libraries Probe Production Network [MLPCN] NIH Chemical Genomics Center [NCGC] Grant: 1 R03 MH092153-01 PI Name: Malcolm Walkinshaw, University of Edinburgh NCGC Assay Overview: Various species of the protozoan family Trypanosomatidae are responsible for a range of serious human diseases in tropical and subtropical areas of the world. […] Many of the disorders caused by trypanosomatids are fatal if left untreated, but most currently used drugs are inefficient and toxic. […] Oxidative metabolism involving the mitochondrial tricarboxylic acid cycle and oxidative phosphorylation are repressed in these parasites, and recent RNA interference (RNAi) experiments have shown that even partial depletion of certain individual glycolytic enzymes can lead to the death of cultured parasites. One such glycolytic enzyme, phosphofructokinase (PFK), catalyzes the formation of fructose-1,6-bisphosphate (F1,6BP) and ADP from fructose-6-phosphate (F6P) and ATP, and in many metabolic circumstances makes an important contribution to the control of flux through the glycolytic pathway. As a specific glycolytic target, PFK is particularly attractive as it catalyzes the first irreversible step in glycolysis, and structural and kinetic studies have shown very substantial and essential differences from corresponding host enzymes, allowing for the discovery of parasite-selective inhibitors. The goal of this screen is to find small-molecule inhibitors of T. brucei PFK using a biochemical assay that measures PFK activity as a function of ADP production. A luminescence-based assay for T. brucei PFK activity has been developed which uses luciferase to detect production of ADP. Traditional luciferase-based nucleotide detection reagents rely on ATP production as a direct substrate for the luciferase reaction; however, PFK catalyzes the transfer of a phosphate from ATP to F6P, resulting in the net depletion of ATP. To directly measure the ADP product of the PFK reaction, we used the ADP-Glo detection kit (Promega), which utilizes two separate reactions to 1) deplete all remaining uncatalyzed ATP and 2) convert all remaining ADP to ATP, which is then detected through a traditional luciferase-coupled reaction. Compounds were screened as a concentration-titration series that ranged from 57 uM to 0.7 nM.
NCGC Assay Protocol Summary: NCGC Assay Protocol Summary: Substrate buffer was dispensed into white, solid 1536-well plates at 3uL/well in 0.1M triethanolamine (TEA) buffer, pH 8.0, containing final concentrations of 5 mM MgCl2, 0.01% Tween20, 0.5 mM fructose-6-phosphate (F6P) and 0.1mM ATP. Then, 23 nL of compounds or DMSO were delivered to each well using a pin tool. One uL T. brucei PFK (0.1M TEA, 0.01% Tween20, 0.1% bovine serum albumin (BSA) and 1.25nM PFK, final concentrations) was then dispensed, and plates were incubated at room temperature for 45 min. The luminescent detection reagent, ADP-Glo (Promega), was then added in two steps: the first reagent, ADP-Glo (which converts remaining uncatalyzed ATP), was added at 2.5uL/well and incubated for ten minutes at room temperature, and the second component, Kinase Detection reagent (which converts ADP to ATP as a substrate for luciferase-based luminescence), was added immediately after at 5uL/well, followed by one final ten minute room temperature incubation. The plates were measured on a ViewLux plate reader for luminescent signal using a clear filter with a one second exposure. The %Activity was determined from the corrected luminescence values. As no specific T. brucei PFK inhibitors have been identified in the literature, 1x (1.25nM) and 0x PFK enzyme controls (untreated) were included to normalize %Activity of identified inhibitors; 0x enzyme values corresponded to 100%Activity (full inhibition), while 1x PFK enzyme values were used to normalize 0%Activity (no inhibition). Concentration-response curves were fitted to the signals arising from the resulting luminescence. […]
Note: nearly all actives have a fitted effect of over 60% in size.
Potency is the fitted concentration of half-maximal effect.

Compound	activity, negative = inhibition	Potency
C=CC[C@@H](CC(=O)N[C@@H](CO)Cc1ccccc1)C(=O)N[C@@H](COC(=O)[C@@H](CC=C)Cc1ccc(F)cc1)Cc1ccccc1	inactive: 2.02%	
COc1cc(N=c2ssnc2Cl)c(OC)cc1Cl	inactive: 0.784%	
CC(C)(C)OC(=O)C[C@@H]1C/C=C\C[C@H](CC(=O)N(CCO)Cc2ccccc2)C(=O)N[C@H](C(C)(C)C)COC1=O	inactive: -5.12%	
CC(C)(C)OC(=O)C[C@H]1C/C=C\C[C@H](CC(=O)NCCO)C(=O)NC[C@H](c2ccccc2)OC1=O	inactive: -2.63%	
CC(=C/c1ccco1)/C=N/NC(=O)Cc1cccn1C	inactive: -1.85%	
Cc1ccc2c(c1C)NC(C(=O)O)C1CC=CC21 (stereo not drawn)	inactive: -10.5%	
CN(/C=C/C(=C/C=[N+](C)c1ccccc1)OCCCS(=O)(=O)[O-])c1ccccc1	inactive: -20.1%	
O=C(NC1CCS(=O)(=O)C1)/C(=C\c1ccco1)NC(=O)c1ccccc1 (stereo not drawn)	inactive: -3.44%	
Oc1cc(O)c2c(c1)O[C@H](c1ccc(O)c(O)c1)[C@H](O)C2	inactive: -11.9%	
CCn1c(/C=C2\C(=O)N(C)c3ccccc32)nc2ccccc2c1=O	inactive: -6.29%	
COc1ccc(NC(=O)/C(C#N)=C\c2ccc(Br)o2)cc1	inactive: -17%	
CC(=O)C[C@@H](O)CC(=O)[C@H]1OC(=O)[C@H](C)CCCCc2ccccc21	inactive: -1.01%	
COc1ccc([C@@H]2CC(=O)c3c(O)cc(O[C@@H]4OC(CO[C@@H]5OC(C)[C@H](O)[C@@H](O)[C@H]5O)[C@@H](O)[C@H](O)[C@H]4O)cc3O2)cc1O (stereo partly drawn)	inactive: 0.29%	
CC1=NN(Cc2ccccc2)C(=O)/C1=C/c1ccc(N(C)C)cc1	inactive: -1.43%	
COc1ccc(S(=O)(=O)/N=C2/NC(=O)/C(=C/c3ccco3)S2)cc1	inactive: 3.81%	
C/C=C(/C)C(=O)OC1CC(C)(C)C[C@H]2C3=CC[C@@H]4[C@@]5(C)CCC(O[C@@H]6O[C@@H](C(=O)O)[C@@H](O)C(O[C@@H]7OC[C@H](O)[C@@H](O)[C@@H]7O[C@@H]7OC(CO)C(O)[C@@H](O)[C@@H]7O)C6O[C@@H]6OC(CO)C(O)C(O)C6O)[C@@](C)(CO)[C@@H]5CC[C@]4(C)[C@]3(C)CC(O)[C@@]12CO (stereo partly drawn)	inactive: 6.33%	
Nc1ccc(C(=O)O)cc1	inactive: -5.87%	

Compound	activity, negative = inhibition	Potency
Nc1ncn(C2O[C@H](CO)[C@@H](O)[C@H]2O)c(=O)n1 (stereo partly drawn)	inactive: 0.391%	
Cc1occc(=O)c1OC(=O)Nc1ccc(Cl)c(Cl)c1		active: 30.1 µM
O=c1cc(-c2ccccc2)oc2cc(O)c(O)c(O)c12		active: 7.57 µM
CC(=O)C[C@@H](O)CC(=O)[C@@H]1OC(=O)[C@H](C)CCCCc2ccccc21	inactive: -1.9%	
Nc1c2c(nc3ccccc13)CCCC2	inactive: -5.86%	
CCOC(=O)c1c(NC(=O)COC(=O)c2ccc(NC(=O)CC#N)cc2)sc(C(=O)NC)c1C		active: 0.849 µM
O=C(Cc1cccs1)N/N=C/C=C\c1ccco1	inactive: 0.121%	
CC(C)NCC(O)c1ccc(O)c(O)c1 (stereo not drawn)	inactive: 0.554%	
CCN1CCN(c2nc(C)nc3c2sc(=S)n3C)CC1		active: 19 µM
CC(C)(C)OC(=O)C[C@@H]1C/C=C\C[C@@H](CC(=O)NCCO)C(=O)NC[C@@H](c2ccccc2)OC1=O	inactive: -14.3%	
CC1=C/C(=C(/c2cc(C)c(O)c(Br)c2)c2ccccc2S(=O)(=O)O)C=C(Br)C1=O	inactive: -29.8%	
N[C@@H](Cc1cc(I)c(Oc2ccc(O)c(I)c2)c(I)c1)C(=O)O		inactive
COc1ccc(NC(=O)N(C)C[C@H]2Oc3ccc(NS(=O)(=O)c4cccs4)cc3C(=O)N([C@@H](C)CO)C[C@@H]2C)cc1	inactive: 1.48%	
O=C(CCS(=O)(=O)c1ccc(F)cc1)Nc1nc(-c2ccncc2)cs1		active: 21.3 µM
CCNc1nc(NCC)n2c(SCC(=O)Nc3ccc(CC)cc3)nnc2n1		active: 21.3 µM
CC1(C)S[C@@H]2[C@H](NC(=O)[C@H](N)c3ccccc3)C(=O)N2[C@H]1C(=O)O	inactive: 4.35%	
